Laboratory results reported in the supplement of paper PMC8728848.
Some of the results follow.

Experiments:
Test in all cases: glycan array binding signal (z-score within array); higher = stronger binding
Details in all cases: glycan notation: IUPAC condensed, linker removed
[1] = molecular target: Neu5Ac(a2-3)Gal(b1-3)]Neu5Ac(a2-3)Gal(b1-4)]GlcNAc
Outline: (§1)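 From the Consortium for Functional Glycomics database, 3228 arrays were curated, keeping only those whose protein sequence was available. Binding is given as a within-array Z-score averaged across arrays sharing a protein sequence and across linkers. Negative Z-scores can be read as non-binding.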

Neu5Ac(a2-3)Gal(b1-4)Glc = molecular target: Neu5Ac(a2-3)Gal(b1-4)Glc
Outline: as §1

[2] = molecular target: Neu5Ac(a2-3)Gal(b1-4)GlcNAc
Outline: as §1

[3] = molecular target: Neu5Ac(a2-3)Gal(b1-4)GlcNAc(b1-2)Man
Outline: as §1

[4] = molecular target: Neu5Ac(a2-3)Gal(b1-4)GlcNAc(b1-2)Man(a1-3)[GlcNAc(b1-4)][Neu5Ac(a2-3)Gal(b1-4)GlcNAc(b1-2)Man(a1-6)]Man(b1-4)GlcNAc(b1-4)GlcNAc
Outline: as §1

[5] = molecular target: Neu5Ac(a2-3)Gal(b1-4)GlcNAc(b1-2)Man(a1-3)[Neu5Ac(a2-3)Gal(b1-4)GlcNAc(b1-2)Man(a1-6)]Man(b1-4)GlcNAc(b1-4)GlcNAc
Outline: as §1

[6] = molecular target: Neu5Ac(a2-3)Gal(b1-4)GlcNAc(b1-2)Man(a1-3)[Neu5Ac(a2-3)Gal(b1-4)GlcNAc(b1-2)Man(a1-6)]Man(b1-4)GlcNAc(b1-4)[Fuc(a1-6)]GlcNAc
Outline: as §1

[7] = molecular target: Neu5Ac(a2-3)Gal(b1-4)GlcNAc(b1-2)Man(a1-3)[Neu5Ac(a2-6)Gal(b1-4)GlcNAc(b1-2)Man(a1-6)]Man(b1-4)GlcNAc(b1-4)GlcNAc
Outline: as §1

[8] = molecular target: Neu5Ac(a2-3)Gal(b1-4)GlcNAc(b1-2)[Neu5Ac(a2-3)Gal(b1-4)GlcNAc(b1-4)]Man(a1-3)[GlcNAc(b1-4)][Neu5Ac(a2-3)Gal(b1-4)GlcNAc(b1-2)[Neu5Ac(a2-3)Gal(b1-4)GlcNAc(b1-6)]Man(a1-6)]Man(b1-4)GlcNAc(b1-4)GlcNAc
Outline: as §1

[9] = molecular target: Neu5Ac(a2-3)Gal(b1-4)GlcNAc(b1-2)[Neu5Ac(a2-3)Gal(b1-4)GlcNAc(b1-4)]Man(a1-3)[GlcNAc(b1-4)][Neu5Ac(a2-3)Gal(b1-4)GlcNAc(b1-4)Man(a1-6)]Man(b1-4)GlcNAc(b1-4)GlcNAc
Outline: as §1

[10] = molecular target: Neu5Ac(a2-3)Gal(b1-4)GlcNAc(b1-2)[Neu5Ac(a2-3)Gal(b1-4)GlcNAc(b1-6)]Man(a1-6)[Neu5Ac(a2-3)Gal(b1-4)GlcNAc(b1-2)Man(a1-3)][GlcNAc(b1-4)]Man(b1-4)GlcNAc(b1-4)GlcNAc
Outline: as §1

[11] = molecular target: Neu5Ac(a2-3)Gal(b1-4)GlcNAc(b1-3)Gal
Outline: as §1

[12] = molecular target: Neu5Ac(a2-3)Gal(b1-4)GlcNAc(b1-3)Gal(b1-3)GlcNAc
Outline: as §1

[13] = molecular target: Neu5Ac(a2-3)Gal(b1-4)GlcNAc(b1-3)Gal(b1-4)GlcNAc
Outline: as §1

[14] = molecular target: Neu5Ac(a2-3)Gal(b1-4)GlcNAc(b1-3)Gal(b1-4)GlcNAc(b1-2)Man(a1-3)[Neu5Ac(a2-3)Gal(b1-4)GlcNAc(b1-3)Gal(b1-4)GlcNAc(b1-2)Man(a1-6)]Man(b1-4)GlcNAc(b1-4)GlcNAc
Outline: as §1

[15] = molecular target: Neu5Ac(a2-3)Gal(b1-4)GlcNAc(b1-3)Gal(b1-4)GlcNAc(b1-3)Gal(b1-4)GlcNAc
Outline: as §1

[16] = molecular target: Neu5Ac(a2-3)Gal(b1-4)GlcNAc(b1-3)Gal(b1-4)GlcNAc(b1-3)Gal(b1-4)GlcNAc(b1-2)Man(a1-3)[Neu5Ac(a2-3)Gal(b1-4)GlcNAc(b1-3)Gal(b1-4)GlcNAc(b1-3)Gal(b1-4)GlcNAc(b1-2)Man(a1-6)]GalNAc
Outline: as §1

[17] = molecular target: Neu5Ac(a2-3)Gal(b1-4)GlcNAc(b1-3)Gal(b1-4)GlcNAc(b1-3)GalNAc
Outline: as §1

[18] = molecular target: Neu5Ac(a2-3)Gal(b1-4)GlcNAc(b1-3)Gal(b1-4)GlcNAc(b1-3)[Neu5Ac(a2-3)Gal(b1-4)GlcNAc(b1-3)Gal(b1-4)GlcNAc(b1-6)]GalNAc
Outline: as §1

[19] = molecular target: Neu5Ac(a2-3)Gal(b1-4)GlcNAc(b1-3)Gal(b1-4)GlcNAc(b1-6)[Gal(b1-3)]GalNAc
Outline: as §1

[20] = molecular target: Neu5Ac(a2-3)Gal(b1-4)GlcNAc(b1-3)Gal(b1-4)[Fuc(a1-3)]GlcNAc
Outline: as §1

[21] = molecular target: Neu5Ac(a2-3)Gal(b1-4)GlcNAc(b1-3)GalNAc
Outline: as §1

[22] = molecular target: Neu5Ac(a2-3)Gal(b1-4)GlcNAc(b1-3)[Neu5Ac(a2-3)Gal(b1-4)GlcNAc(b1-6)]GalNAc
Outline: as §1

[23] = molecular target: Neu5Ac(a2-3)Gal(b1-4)GlcNAc(b1-6)GalNAc
Outline: as §1

[24] = molecular target: Neu5Ac(a2-3)Gal(b1-4)GlcNAc(b1-6)[Gal(b1-3)]GalNAc
Outline: as §1

[25] = molecular target: Neu5Ac(a2-3)Gal(b1-4)GlcNAc(b1-6)[Neu5Ac(a2-3)Gal(b1-3)]GalNAc
Outline: as §1

[26] = molecular target: Neu5Ac(a2-3)Gal(b1-4)GlcNAc6S
Outline: as §1

[27] = molecular target: Neu5Ac(a2-3)Gal(b1-4)[Fuc(a1-3)]GlcNAc
Outline: as §1

[28] = molecular target: Neu5Ac(a2-3)Gal(b1-4)[Fuc(a1-3)]GlcNAc(b1-2)Man
Outline: as §1

[29] = molecular target: Neu5Ac(a2-3)Gal(b1-4)[Fuc(a1-3)]GlcNAc(b1-3)Gal
Outline: as §1

[30] = molecular target: Neu5Ac(a2-3)Gal(b1-4)[Fuc(a1-3)]GlcNAc(b1-3)Gal(b1-4)GlcNAc
Outline: as §1

[31] = molecular target: Neu5Ac(a2-3)Gal(b1-4)[Fuc(a1-3)]GlcNAc(b1-3)Gal(b1-4)[Fuc(a1-3)]GlcNAc(b1-3)Gal(b1-4)[Fuc(a1-3)]GlcNAc
Outline: as §1

[32] = molecular target: Neu5Ac(a2-3)Gal(b1-4)[Fuc(a1-3)]GlcNAc(b1-3)GalNAc
Outline: as §1

[33] = molecular target: Neu5Ac(a2-3)Gal(b1-4)[Fuc(a1-3)]GlcNAc(b1-6)[Gal(b1-3)]GalNAc
Outline: as §1

[34] = molecular target: Neu5Ac(a2-3)Gal(b1-4)[Fuc(a1-3)]GlcNAc(b1-6)[Neu5Ac(a2-3)Gal(b1-3)]GalNAc
Outline: as §1

[35] = molecular target: Neu5Ac(a2-3)Gal(b1-4)[Fuc(a1-3)]GlcNAc6S
Outline: as §1

[36] = molecular target: Neu5Ac(a2-3)Gal6S(b1-4)GlcNAc
Outline: as §1

[37] = molecular target: Neu5Ac(a2-3)Gal6S(b1-4)[Fuc(a1-3)]GlcNAc
Outline: as §1

B1: Epa12 (Candida glabrata) (protein)
chain: MGSSHHHHHHSSGLVPRGSHMLEPDNSLQIFDSFLSNPSKYPLGCSPKITNPKKGLSMELYSYPYRKKGSHPCWDPAYLDPNFPRVGYKKNKLIARVDGVSGDINFNFHPKRQCTPIADYLPPNFNYNEPITTTNFTMLLYGYFKPKVTGLHTFDISADDLLFMNFGAGNAFDCCRRDSTADTFGNYVAWAIWGRRIVRNKLTVRLDKGIYYPLRLFFNNRDYYGQMRLTFKTEHGSERITDFSDYFFSVDDTSEGCPGLITYESECADVKSSTVLETDYITIQAEKE
[1]
  glycan array binding signal (z-score): -0.365
Neu5Ac(a2-3)Gal(b1-4)Glc
  glycan array binding signal (z-score): -0.204
[2]
  glycan array binding signal (z-score): -0.321
[3]
  glycan array binding signal (z-score): -0.131
[4]
  glycan array binding signal (z-score): -0.307
[5]
  glycan array binding signal (z-score): -0.322
[6]
  glycan array binding signal (z-score): -0.361
[7]
  glycan array binding signal (z-score): -0.367
[8]
  glycan array binding signal (z-score): -0.406
[9]
  glycan array binding signal (z-score): -0.361
[10]
  glycan array binding signal (z-score): -0.401
[11]
  glycan array binding signal (z-score): -0.315
[12]
  glycan array binding signal (z-score): -0.366
[13]
  glycan array binding signal (z-score): -0.324
[14]
  glycan array binding signal (z-score): -0.038
[15]
  glycan array binding signal (z-score): -0.254
[16]
  glycan array binding signal (z-score): -0.239
[17]
  glycan array binding signal (z-score): -0.275
[18]
  glycan array binding signal (z-score): -0.296
[19]
  glycan array binding signal (z-score): -0.298
[20]
  glycan array binding signal (z-score): -0.658
[21]
  glycan array binding signal (z-score): -0.373
[22]
  glycan array binding signal (z-score): -0.304
[23]
  glycan array binding signal (z-score): -0.311
[24]
  glycan array binding signal (z-score): -0.21
[25]
  glycan array binding signal (z-score): -0.387
[26]
  glycan array binding signal (z-score): -0.262
[27]
  glycan array binding signal (z-score): -0.322
[28]
  glycan array binding signal (z-score): -0.321
[29]
  glycan array binding signal (z-score): -0.298
[30]
  glycan array binding signal (z-score): -0.251
[31]
  glycan array binding signal (z-score): -0.37
[32]
  glycan array binding signal (z-score): -0.242
[33]
  glycan array binding signal (z-score): -0.245
[34]
  glycan array binding signal (z-score): -0.261
[35]
  glycan array binding signal (z-score): -0.311
[36]
  glycan array binding signal (z-score): 0.562
[37]
  glycan array binding signal (z-score): -0.338
